Experimental data as given in PubChem BioAssay AID1479 (National Center for Advancing Translational Sciences (NCATS), 2009).
Out of some 280,000 compounds screened, about 820 (0.29%) were called active. This list was built around the results that the source calls inconclusive (neither active nor inactive); the mix of calls is not that of the screen. Calls come from the whole dose curve; as a rule, active = well fitted curve in either direction with a large enough effect; inconclusive = small, poorly fitted or top-dose-only effect; inactive = flat fitted curve, though single readings scatter. No potency is given beside an inconclusive call; the fits are too rough.

Assay: Total Fluorescence Counterscreen for Inhibitors of the Interaction of Thyroid Hormone Receptor and Steroid Receptor Coregulator 2
Settings: TRb/SRC2 Texas Red total fluorescence interference; series mostly up to 106 µM
Outline: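 Human TRβ ligand-binding domain (0.6 uM) and Texas Red SRC2 peptide (20 nM) in Tris buffer with 1 uM T3 and 5% DMSO were incubated with pinned compound for 5 hr at ambient temperature. Total fluorescence was computed as S + 2P (555/632 nm).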
Potency is the fitted concentration of half-maximal effect; tags give direction and shape of the fitted curve or compound fluorescence and quenching.

SMILES | Potency
Cc1ccc(NC(=O)c2sc3nc4c(cc3c2N)CN(Cc2ccccc2)CC4)cc1 | inactive
CC1=Nc2nc(N3CCCCC3)c(C#N)c3c4c(nc(c23)N1)N(c1ccc(C(C)C)cc1)C(=O)C4 | inactive
Cc1nn(-c2ccccc2)c(C)c1/C=N/NC(=O)c1cc(-c2ccccc2)n[nH]1 | inactive
O=S(=O)(Nc1ncccn1)c1ccc(NS(=O)(=O)c2cc(Cl)ccc2Cl)cc1 | inactive
COc1cccc(C(=O)Nc2ccc(NC(=O)C(C)(C)C)cn2)c1 | inactive
Cc1ccc(C)c(Cn2c(C3CC(=O)N(c4ccccc4C)C3)nc3ccccc32)c1 (centres undefined) | inactive
Cc1ccc(SCc2cc(=O)c3c(=O)n(-c4ccccc4)[nH]c3[nH]2)cc1 | inconclusive [quencher, partial curve]
CC(C)(C)NS(=O)(=O)c1cc(C(=O)Nc2sccc2C#N)ccc1Cl | inconclusive [fluorescent, partial curve]
COc1cccc(N2CCN(C(=O)Cn3c(-c4cccs4)cc4ccccc43)CC2)c1 | active: 39.8 µM [quencher]
CCCN(C(=O)Cn1cnc2onc(-c3ccc(F)cc3)c2c1=O)c1cccc(Cl)c1 | active: 178 µM [quencher]
CCC(Sc1nc2ccccc2c(=O)n1CCc1ccc(OC)c(OC)c1)C(=O)N(CC)CC (centres undefined) | inconclusive [falling, partial curve, poor fit]
CCCCn1cc2c(c1-c1ccc(Cl)cc1)c(=O)n(C)c(=O)n2C | inconclusive [falling, full curve, poor fit]
Cc1ccc(-n2ncc(C(=O)NCc3ccco3)c2C2CCN(C(=O)OC(C)(C)C)CC2)c(C)c1 | inactive
CC(=O)c1ccc(N2C(=O)N(CC(=O)c3ccc(F)cc3)c3ccccc3S2(=O)=O)cc1 | inconclusive [quencher, full curve]
COC(=O)c1c(NC(=O)CCCOc2cccc(C)c2)sc2c1C(C(=O)OC)CC2 (centres undefined) | inconclusive [falling, full curve, poor fit]
Cn1nc(C(=O)Nc2ccc(F)c(Cl)c2)c2c1-c1ccccc1S(=O)(=O)C2 | active: 0.0063 µM [quencher]
CCOC(=O)c1c(C)[nH]c(C)c1S(=O)(=O)N1CCCC(C(=O)N2CCN(c3cccc(C)c3C)CC2)C1 (centres undefined) | inconclusive [quencher, full curve]
Cc1ccc(NC(=O)Cn2c(=O)n(CC3CCCO3)c(=O)c3ccccc32)cc1 (centres undefined) | inconclusive [quencher, full curve]
CCCS(=O)(=O)N1CC(=O)N(c2ccc(Cl)cc2C)C(C)(C(=O)NC2CCCC2)C1 (centres undefined) | active: 28.2 µM [quencher]
CN(C)c1ccc(N2CN=C3SCC(=O)N3C2)cc1 | inconclusive [rising, partial curve, poor fit]
COc1ccc(CCn2c(NN=C(C)C)nc3c2c(=O)[nH]c(=O)n3C)cc1 | inactive
COc1cc2ccccc2cc1C(=O)Nc1ccc(Cc2ccncc2)cc1 | inactive

SMILES | Potency
Cc1ccc(C(=O)c2cn(CC(=O)Nc3ccc(C)cc3Cl)c3nc(C)ccc3c2=O)cc1 | inconclusive [falling, full curve, poor fit]
C/C=C/c1ccc2oc(-c3ccc(O)cc3)c(C)c2c1 | inactive
Cc1ccc(-c2nc3sc(CCNC(=O)c4ccc(Br)o4)c(C)n3n2)cc1 | inactive
Cc1cc(-c2csc(NC(=O)c3ccc(=O)[nH]c3)n2)c(C)n1Cc1ccco1 | inconclusive [quencher, full curve]
COc1ccccc1NC(=O)C(=O)NCCc1csc(-c2cccc(F)c2)n1 | inconclusive [falling, full curve, poor fit]
CCCCCS(=O)(=O)c1oc(-c2cccs2)nc1S(=O)(=O)c1ccc(C)cc1 | inconclusive [falling, partial curve, poor fit]
CCCCN(CCCC)C(=O)c1cc2c(=O)n3cccc(C)c3nc2s1 | inconclusive [falling, full curve, poor fit]
CCc1ccc(NC(=O)c2sc(-n3nc(C)c(Cc4ccc(OC)cc4)c3C)nc2C)cc1 | inconclusive [falling, full curve, poor fit]
Cc1cc2nn(-c3ccccc3)nc2cc1NC(=O)c1cccc2c(Cl)cccc12 | inconclusive [falling, full curve, poor fit]
NCCC[C@@H](N)C(=O)O | inactive
Cn1nc(C(F)(F)F)c2cc(C(=O)O)sc21 | inactive
COc1ccc(C2=C(C)C(=O)N(Cc3ccc(C(=O)NCc4cccc(C)c4)cc3)S2(=O)=O)cc1 | active: 158 µM [quencher]
O=C(COc1ccc(F)cc1)Nc1ccc2nc(SCC(=O)N3CCOCC3)sc2c1 | inconclusive [falling, full curve, poor fit]
CC1CCN(C(=O)c2cc(-c3ccc(Br)cc3)on2)CC1 | inconclusive [falling, full curve, poor fit]
O=C(NCN1C(=O)C2C3C=CC(C3)C2C1=O)Nc1nccs1 (centres undefined) | inactive
CCc1ccccc1OCC(=O)Nc1ccc(S(=O)(=O)Nc2nc(C)cc(C)n2)cc1 | inactive
CC1=CN2C(=N)/C(=C\c3cn(CCCOc4ccccc4)c4ccccc34)C(=O)N=C2S1 | inconclusive [falling, partial curve, poor fit]
Cc1cccc(C(=O)NCN2CCN(c3ccccc3C#N)CC2)c1 | inconclusive [quencher, full curve]
CCOC(=O)c1c(-c2ccc(C)cc2)csc1NC(=O)c1cc(=O)c2ccc(C)cc2o1 | active: 35.5 µM [quencher]
Cc1cccc(C)c1OCC(=O)Nc1ccc(S(=O)(=O)Nc2ccccn2)cc1 | active: 70.8 µM [quencher]
CC(C)(C=O)C1=CC(=O)c2ccccc2C1=O | inconclusive [falling, full curve, poor fit]
CCOc1cc(/C=C(\C#N)C(=O)NCC2CCCO2)ccc1O (centres undefined) | inconclusive [falling, partial curve, poor fit]
